Some of the results follow. Repeats are few or missing, and single values can be far off.
Experiments:
Test in all cases: cell count relative to DMSO control; melanoma cells; higher = more viable cells
Conditions in all cases: library dose: low library concentration; 72 h
[1] = test system: MZ2-MEL
[2] = test system: MeWo
[3] = test system: RPMI7951
[4] = test system: RVH-421
[5] = test system: SkMel28
[6] = test system: SkMel2
[7] = test system: SkMel30
[8] = test system: SkMel5
[9] = test system: UACC257
[10] = test system: UACC62
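Further: cell number obtained by counting DAPI-stained nuclei in high-throughput microscope images with image analysis software, screen run in 1,536-well plates.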

SMILES	cell count [1]	cell count [2]	cell count [3]	cell count [4]	cell count [5]	cell count [6]	cell count [7]	cell count [8]	cell count [9]	cell count [10]
CC[C@]1(O)C[C@H]2CN(CCc3c([nH]c4ccccc34)[C@@](C(=O)OC)(c3cc4c(cc3OC)N(C=O)[C@H]3[C@@](O)(C(=O)OC)[C@H](OC(C)=O)[C@]5(CC)C=CCN6CC[C@]43[C@@H]65)C2)C1 [vincristine] + O=S(=O)(c1ccccc1)N(CC(F)(F)F)c1ccc(C(O)(C(F)(F)F)C(F)(F)F)cc1 [T0901317] (first compound 0.0001 µM, partner dose 1.4 µM)	78.7%	74.3%	51.2%	79.7%	69%	97%	47.2%	80.1%	40.7%	56.3%
CC[C@]1(O)C[C@H]2CN(CCc3c([nH]c4ccccc34)[C@@](C(=O)OC)(c3cc4c(cc3OC)N(C=O)[C@H]3[C@@](O)(C(=O)OC)[C@H](OC(C)=O)[C@]5(CC)C=CCN6CC[C@]43[C@@H]65)C2)C1 [vincristine] + CC1(C)NC(=O)N(c2ccc([N+](=O)[O-])c(C(F)(F)F)c2)C1=O [nilutamide] (first compound 0.0001 µM, partner dose 1 µM)	98.1%	94.5%	60.9%	95.2%	92.1%	92.7%	81.4%	95.8%	47%	62.9%
Cc1cc(Nc2cc(N3CCN(C)CC3)nc(Sc3ccc(NC(=O)C4CC4)cc3)n2)n[nH]1 [Tozasertib] + CN(C)S(=O)(=O)c1ccc2c(c1)/C(=C/c1cc3c([nH]1)CCCC3)C(=O)N2 [SU6656] (first compound 0.006 µM, partner dose 0.4 µM)	99.9%	93.4%	100%	101%	88.7%	97%	91%	79.4%	77%	71.9%
CC[C@]1(O)C[C@H]2CN(CCc3c([nH]c4ccccc34)[C@@](C(=O)OC)(c3cc4c(cc3OC)N(C=O)[C@H]3[C@@](O)(C(=O)OC)[C@H](OC(C)=O)[C@]5(CC)C=CCN6CC[C@]43[C@@H]65)C2)C1 [vincristine] + Cc1cc([N+](=O)[O-])ccc1NS(=O)(=O)c1cc(Cl)ccc1Cl [FH535] (first compound 0.0001 µM, partner dose 1 µM)	54.1%	68.2%	36.2%	77.4%	72.8%	62.8%	44%	83.6%	49.2%	44.1%
CC[C@]1(O)C[C@H]2CN(CCc3c([nH]c4ccccc34)[C@@](C(=O)OC)(c3cc4c(cc3OC)N(C=O)[C@H]3[C@@](O)(C(=O)OC)[C@H](OC(C)=O)[C@]5(CC)C=CCN6CC[C@]43[C@@H]65)C2)C1 [vincristine] + CCCCCCCCCCCC1=C(O)C(=O)C=C(O)C1=O [Embelin] (first compound 0.0001 µM, partner dose 1.2 µM)	75.5%	91.9%	53.3%	88.1%	68.2%	73.6%	68.6%	76.9%	51.2%	40.4%
CC[C@]1(O)C[C@H]2CN(CCc3c([nH]c4ccccc34)[C@@](C(=O)OC)(c3cc4c(cc3OC)N(C=O)[C@H]3[C@@](O)(C(=O)OC)[C@H](OC(C)=O)[C@]5(CC)C=CCN6CC[C@]43[C@@H]65)C2)C1 [vincristine] + CN(NC(=O)CC(=O)NN(C)C(=S)c1ccccc1)C(=S)c1ccccc1 [STA4783] (first compound 0.0001 µM, partner dose 0.006 µM)	87.4%	77.8%	44.2%	81.3%	61.2%	91.8%	52.9%	80.7%	45.5%	48%
CC[C@]1(O)C[C@H]2CN(CCc3c([nH]c4ccccc34)[C@@](C(=O)OC)(c3cc4c(cc3OC)N(C=O)[C@H]3[C@@](O)(C(=O)OC)[C@H](OC(C)=O)[C@]5(CC)C=CCN6CC[C@]43[C@@H]65)C2)C1 [vincristine] + COc1ccc2c(c1)CCC1C2CCC2(C)C(NCCCCCCN3C(=O)C=CC3=O)CCC12 [U73122] (first compound 0.0001 µM, partner dose 0.4 µM)	113%	98%	82.3%	93%	110%	100%	108%	112%	75.5%	97.5%
Cc1cc(Nc2cc(N3CCN(C)CC3)nc(Sc3ccc(NC(=O)C4CC4)cc3)n2)n[nH]1 [Tozasertib] + CN(NC(=O)CC(=O)NN(C)C(=S)c1ccccc1)C(=S)c1ccccc1 [STA4783] (first compound 0.006 µM, partner dose 0.006 µM)	98.3%	89.1%	92.3%	92.4%	84.8%	102%	105%	86.1%	81.7%	68.3%
CC[C@]1(O)C[C@H]2CN(CCc3c([nH]c4ccccc34)[C@@](C(=O)OC)(c3cc4c(cc3OC)N(C=O)[C@H]3[C@@](O)(C(=O)OC)[C@H](OC(C)=O)[C@]5(CC)C=CCN6CC[C@]43[C@@H]65)C2)C1 [vincristine] + O=C(O)c1ccc(-c2c[nH]c3ncc(-c4ccccc4)cc23)cc1C1CCCC1 [GSK650394] (first compound 0.0001 µM, partner dose 0.16 µM)	94%	68.2%	58.9%	91.5%	63.3%	84.8%	43.6%	80.9%	36%	52.2%
N#CC[C@H](C1CCCC1)n1cc(-c2ncnc3[nH]ccc23)cn1 [ruxolitinib] + COc1cc2c(Oc3ccc4[nH]c(C)cc4c3F)ncnc2cc1OCCCN1CCCC1 [cediranib] (first compound 1 µM, partner dose 0.4 µM)	119%	101%	101%	80.6%	108%	102%	148%	95%	84.3%	123%
N#CC[C@H](C1CCCC1)n1cc(-c2ncnc3[nH]ccc23)cn1 [ruxolitinib] + N#Cc1c(O)c2c(-c3ccc(-c4ccccc4O)cc3)csc2[nH]c1=O [A769662] (first compound 1 µM, partner dose 2 µM)	101%	84.7%	92.1%	100%	93.2%	95.4%	87.9%	102%	98.8%	90.7%
CC[C@]1(O)C[C@H]2CN(CCc3c([nH]c4ccccc34)[C@@](C(=O)OC)(c3cc4c(cc3OC)N(C=O)[C@H]3[C@@](O)(C(=O)OC)[C@H](OC(C)=O)[C@]5(CC)C=CCN6CC[C@]43[C@@H]65)C2)C1 [vincristine] + O=c1cc(-c2cccc3c2Sc2ccccc2S3)oc(N2CCOCC2)c1 [KU55933] (first compound 0.0001 µM, partner dose 1 µM)	74.4%	80.8%	39.5%	94.7%	62.7%	74.9%	53.5%	92.6%	47.1%	38.7%
CC[C@]1(O)C[C@H]2CN(CCc3c([nH]c4ccccc34)[C@@](C(=O)OC)(c3cc4c(cc3OC)N(C=O)[C@H]3[C@@](O)(C(=O)OC)[C@H](OC(C)=O)[C@]5(CC)C=CCN6CC[C@]43[C@@H]65)C2)C1 [vincristine] + Oc1nc(-c2ccc(C(F)(F)F)cc2)nc2c1CSCC2 [XAV939] (first compound 0.0001 µM, partner dose 2 µM)	97.7%	93.9%	56.1%	102%	58.7%	93.4%	49.6%	82.3%	63.4%	53.2%
Cc1cc(Nc2cc(N3CCN(C)CC3)nc(Sc3ccc(NC(=O)C4CC4)cc3)n2)n[nH]1 [Tozasertib] + c1cc(-c2cnn3cc(-c4ccc(OCCN5CCCCC5)cc4)cnc23)ccn1 [Dorsomorphin] (first compound 0.006 µM, partner dose 0.4 µM)	99.3%	95.1%	86.5%	88.2%	111%	105%	98.7%	117%	105%	91.9%
CC[C@]1(O)C[C@H]2CN(CCc3c([nH]c4ccccc34)[C@@](C(=O)OC)(c3cc4c(cc3OC)N(C=O)[C@H]3[C@@](O)(C(=O)OC)[C@H](OC(C)=O)[C@]5(CC)C=CCN6CC[C@]43[C@@H]65)C2)C1 [vincristine] + C=CCn1c(=O)c2cnc(Nc3ccc(N4CCN(C)CC4)cc3)nc2n1-c1cccc(C(C)(C)O)n1 [MK1775] (first compound 0.0001 µM, partner dose 0.02 µM)	96.2%	100%	75.1%	91.7%	81.4%	80.2%	64.7%	68.2%	67.6%	52.6%
Cc1cc(Nc2cc(N3CCN(C)CC3)nc(Sc3ccc(NC(=O)C4CC4)cc3)n2)n[nH]1 [Tozasertib] + N#Cc1c(O)c2c(-c3ccc(-c4ccccc4O)cc3)csc2[nH]c1=O [A769662] (first compound 0.006 µM, partner dose 2 µM)	109%	84.9%	92.1%	100%	93.6%	100%	117%	97.7%	81%	96.8%
CC[C@]1(O)C[C@H]2CN(CCc3c([nH]c4ccccc34)[C@@](C(=O)OC)(c3cc4c(cc3OC)N(C=O)[C@H]3[C@@](O)(C(=O)OC)[C@H](OC(C)=O)[C@]5(CC)C=CCN6CC[C@]43[C@@H]65)C2)C1 [vincristine] + CS(=O)(=O)c1ccc(C(=O)Nc2ccc(Cl)c(-c3ccccn3)c2)c(Cl)c1 [vismodegib] (first compound 0.0001 µM, partner dose 1 µM)	95.5%	81.9%	47.3%	87.8%	95%	99.5%	67.1%	–	–	67.8%
N#CC[C@H](C1CCCC1)n1cc(-c2ncnc3[nH]ccc23)cn1 [ruxolitinib] + CC(C)CCN1c2nc(Nc3cc(F)c(O)c(F)c3)ncc2N(C)C(=O)C1C [BID1870] (first compound 1 µM, partner dose 0.2 µM)	106%	92.1%	106%	97.8%	101%	102%	89.5%	–	99.5%	–
CC[C@]1(O)C[C@H]2CN(CCc3c([nH]c4ccccc34)[C@@](C(=O)OC)(c3cc4c(cc3OC)N(C=O)[C@H]3[C@@](O)(C(=O)OC)[C@H](OC(C)=O)[C@]5(CC)C=CCN6CC[C@]43[C@@H]65)C2)C1 [vincristine] + COc1cc2ncnc(Nc3ccc(Oc4ccccc4)cc3)c2cc1OC [SrcI1] (first compound 0.0001 µM, partner dose 2 µM)	96.4%	44.5%	48.2%	44.4%	34.1%	98.6%	35%	74.8%	29.3%	36.2%
